Measured values: the supplement of paper PMC8728848
This is one part of the list.

Legend:
Assay in all cases: glycan array binding signal (z-score within array); higher = stronger binding
Settings in all cases: glycan notation: IUPAC condensed, linker removed
[1] = target: Neu5Ac(a2-3)Gal(b1-3)GalNAc
How it was run: (§1)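 Negative Z-scores can be read as non-binding. The Z-score is calculated within each array and then averaged across arrays of one protein sequence at different concentrations or buffers and across linkers. Arrays, 3228 in all, were curated from the Consortium for Functional Glycomics database and kept only where the protein sequence was available.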

[2] = target: Neu5Ac(a2-3)Gal(b1-3)GalNAc(b1-3)Gal(a1-4)Gal(b1-4)Glc
How it was run: as §1

[3] = target: Neu5Ac(a2-3)Gal(b1-3)GalNAc(b1-4)Gal(b1-4)Glc
How it was run: as §1

[4] = target: Neu5Ac(a2-3)Gal(b1-3)GalNAc(b1-4)[Neu5Ac(a2-3)]Gal(b1-4)Glc
How it was run: as §1

[5] = target: Neu5Ac(a2-3)Gal(b1-3)GalNAc(b1-4)[Neu5Ac(a2-8)Neu5Ac(a2-3)]Gal(b1-4)Glc
How it was run: as §1

[6] = target: Neu5Ac(a2-3)Gal(b1-3)GalNAc6S
How it was run: as §1

[7] = target: Neu5Ac(a2-3)Gal(b1-3)GlcNAc
How it was run: as §1

[8] = target: Neu5Ac(a2-3)Gal(b1-3)GlcNAc(b1-2)Man
How it was run: as §1

[9] = target: Neu5Ac(a2-3)Gal(b1-3)GlcNAc(b1-2)Man(a1-3)[GlcNAc(b1-4)][Neu5Ac(a2-3)Gal(b1-3)GlcNAc(b1-2)Man(a1-6)]Man(b1-4)GlcNAc(b1-4)GlcNAc
How it was run: as §1

[10] = target: Neu5Ac(a2-3)Gal(b1-3)GlcNAc(b1-2)Man(a1-3)[Neu5Ac(a2-3)Gal(b1-3)GlcNAc(b1-2)Man(a1-6)]Man(b1-4)GlcNAc(b1-4)GlcNAc
How it was run: as §1

[11] = target: Neu5Ac(a2-3)Gal(b1-3)GlcNAc(b1-2)[Neu5Ac(a2-3)Gal(b1-3)GlcNAc(b1-4)]Man(a1-6)[Neu5Ac(a2-3)Gal(b1-3)GlcNAc(b1-2)Man(a1-3)]Man(b1-4)GlcNAc(b1-4)GlcNAc
How it was run: as §1

[12] = target: Neu5Ac(a2-3)Gal(b1-3)GlcNAc(b1-3)Gal(b1-3)GlcNAc
How it was run: as §1

[13] = target: Neu5Ac(a2-3)Gal(b1-3)GlcNAc(b1-3)Gal(b1-4)GlcNAc
How it was run: as §1

[14] = target: Neu5Ac(a2-3)Gal(b1-3)GlcNAc(b1-3)GalNAc
How it was run: as §1

[15] = target: Neu5Ac(a2-3)Gal(b1-3)GlcNAc(b1-6)GalNAc
How it was run: as §1

[16] = target: Neu5Ac(a2-3)Gal(b1-3)GlcNAc6S
How it was run: as §1

[17] = target: Neu5Ac(a2-3)Gal(b1-3)[Fuc(a1-4)]GlcNAc
How it was run: as §1

[18] = target: Neu5Ac(a2-3)Gal(b1-3)[Fuc(a1-4)]GlcNAc(b1-3)Gal(b1-3)[Fuc(a1-4)]GlcNAc
How it was run: as §1

[19] = target: Neu5Ac(a2-3)Gal(b1-3)[Fuc(a1-4)]GlcNAc(b1-3)Gal(b1-4)[Fuc(a1-3)]GlcNAc
How it was run: as §1

[20] = target: Neu5Ac(a2-3)Gal(b1-3)[GlcNAc(b1-6)]GalNAc
How it was run: as §1

[21] = target: Neu5Ac(a2-3)Gal(b1-3)[Neu5Ac(a2-6)]GalNAc
How it was run: as §1

[22] = target: Neu5Ac(a2-3)Gal(b1-3)[Neu5Ac(a2-6)]GlcNAc(b1-3)[Fuc(a1-3)[Gal(b1-4)]GlcNAc(b1-6)]Gal(b1-4)Glc
How it was run: as §1

B1: PLU (Photorhabdus luminiscence) (protein)
chain: HHHHHHENLYFQSSIVFASIDPRSNPLQTSSQNYVDIPGLKLDVSKYSNSPCLTALITLNIPTPYASGNNFPGGNFAIVTDQGEQLAYGGFTYSSKIPENSGRMPFTLVARYSLASNVSTIKAQWSNIRGSTVHIDSYASISAVIQCNQLV
glycan array binding signal (z-score) [1]: -0.339 | glycan array binding signal (z-score) [2]: -0.254 | glycan array binding signal (z-score) [3]: -0.357 | glycan array binding signal (z-score) [4]: -0.31 | glycan array binding signal (z-score) [5]: -0.329 | glycan array binding signal (z-score) [6]: -0.319 | glycan array binding signal (z-score) [7]: -0.264 | glycan array binding signal (z-score) [8]: -0.334 | glycan array binding signal (z-score) [9]: -0.297 | glycan array binding signal (z-score) [10]: -0.307 | glycan array binding signal (z-score) [11]: -0.104 | glycan array binding signal (z-score) [12]: -0.228 | glycan array binding signal (z-score) [13]: -0.357 | glycan array binding signal (z-score) [14]: -0.264 | glycan array binding signal (z-score) [15]: -0.281 | glycan array binding signal (z-score) [16]: -0.277 | glycan array binding signal (z-score) [17]: -0.309 | glycan array binding signal (z-score) [18]: -0.315 | glycan array binding signal (z-score) [19]: -0.181 | glycan array binding signal (z-score) [20]: -0.346 | glycan array binding signal (z-score) [21]: -0.203 | glycan array binding signal (z-score) [22]: -0.327
